Compound in this assay: Cn1c(=O)n(-c2ccc(C(C)(C)C#N)cc2)c2c3cc(-c4cnc5ccccc5c4)ccc3ncc21 [NVP-BEZ235]
As to the kind of experiment: Viability of human cancer cell lines after 72 h of drug (GDSC screen). On the procedure:
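Human cancer cell lines in 384-well plates, medium with 10% serum, drug for 72 h over a 256-fold dose range (nine 2-fold or five 4-fold steps up to the top dose). Adherent lines were fixed and stained with the nucleic acid dye Syto60, suspension lines read with resazurin; signal relative to control wells, capped at 0 and 100%. One two-parameter sigmoid per drug and line, fitted in a mixed model over all curves with the slope shared within a line.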

A lower IC50 marks a more sensitive line; fits outside the tested doses are given as limits. AUC, from the same fit, is the share of area under the viability curve across the 256-fold dose range; it is 1 without any effect and falls as sensitivity rises.

In general, IC50 refers to the midpoint of a concentration-inhibition curve.

Turning to “NCI-H358 (lung adenocarcinoma, adherent, top dose 2 µM)”, the AUC came out at 0.791 and the IC50 is 1010 nM.

Take “NCI-H446 (small cell lung carcinoma, semi-adherent, top dose 0.25 µM)”: the AUC was found to be 0.731 and the IC50 is 74.9 nM.

Turning to “NCI-H460 (large cell lung carcinoma, adherent, top dose 0.25 µM)”, the AUC was determined as 0.744 and the IC50 was 72 nM.

With “NCI-H508 (large intestine, semi-adherent, top dose 0.25 µM)”, the AUC was 0.6 and the IC50 came out at 35.3 nM.

As to “NCI-H510A (small cell lung carcinoma, semi-adherent, top dose 0.25 µM)”, the AUC is 0.806 and the IC50 was determined as 115 nM.

For the cell line “NCI-H520 (lung squamous cell carcinoma, adherent, top dose 0.25 µM)”, the AUC stood at 0.754 and the IC50 came out at 86.6 nM.

Turning to “NCI-H522 (lung adenocarcinoma, adherent, top dose 0.25 µM)”, the AUC came out at 0.801 and the concentration for half-maximal inhibition (IC50) was found to be 149 nM.

On to “NCI-H524 (small cell lung carcinoma, suspension, top dose 0.25 µM)”, for which the AUC is 0.845 and the half-inhibitory concentration (IC50) amounted to 153 nM.

Take “NCI-H526 (small cell lung carcinoma, suspension, top dose 0.25 µM)”: the AUC came to 0.778 and the IC50 is 96.8 nM.

As for “NCI-H596 (lung adenocarcinoma, adherent, top dose 0.25 µM)”, the AUC was found to be 0.793 and the IC50 worked out at 153 nM.

“NCI-H630 (large intestine, adherent, top dose 0.25 µM)”: the AUC came out at 0.932 and the IC50 was above 250 nM.

Regarding “NCI-H647 (non-small cell lung carcinoma, adherent, top dose 0.25 µM)”, the AUC turned out to be 0.642 and the IC50 turned out to be 39.5 nM.

In the case of “NCI-H650 (lung adenocarcinoma, adherent, top dose 0.25 µM)”, the AUC was 0.723 and the IC50 stood at 72.2 nM.

With “NCI-H661 (large cell lung carcinoma, adherent, top dose 0.25 µM)”, the AUC is 0.733 and the 50% inhibitory concentration (IC50) is 84.3 nM.

Turning to “NCI-H720 (lung carcinoid, suspension, top dose 0.25 µM)”, the AUC stood at 0.765 and the IC50 amounted to 84 nM.

On to “NCI-H727 (lung carcinoid, adherent, top dose 0.25 µM)”, for which the AUC was determined as 0.784 and the IC50 amounted to 194 nM.

In the case of “NCI-H747 (large intestine, adherent, top dose 0.25 µM)”, the AUC came out at 0.768 and the IC50 was 114 nM.

For the cell line “NCI-H810 (large cell lung carcinoma, adherent, top dose 0.25 µM)”, the AUC came out at 0.865 and the IC50 was found to be 205 nM.

With “NCI-H835 (lung carcinoid, suspension, top dose 0.25 µM)”, the AUC turned out to be 0.886 and the IC50 was above 250 nM.

Consider “NCI-H838 (lung adenocarcinoma, adherent, top dose 0.25 µM)”, for which the AUC was determined as 0.584 and the IC50 turned out to be 26.9 nM.

For the cell line “NCI-H841 (small cell lung carcinoma, adherent, top dose 0.25 µM)”, the AUC came out at 0.555 and the IC50 worked out at 22.1 nM.

As for “NCI-H847 (small cell lung carcinoma, adherent, top dose 0.25 µM)”, the AUC is 0.923 and the IC50 was above 250 nM.

Regarding “NCI-H929 (myeloma, suspension, top dose 0.25 µM)”, the AUC was 0.436 and the IC50 is 10.7 nM.

For “NCI-H1048 (small cell lung carcinoma, adherent, top dose 0.25 µM)”, the AUC stood at 0.761 and the IC50 was 80.3 nM.

Regarding “NCI-H1092 (small cell lung carcinoma, suspension, top dose 0.25 µM)”, the AUC is 0.947 and the IC50 was above 250 nM.

On to “NCI-H1105 (small cell lung carcinoma, suspension, top dose 0.25 µM)”, for which the AUC worked out at 0.848 and the IC50 stood at 138 nM.

Regarding “NCI-H1155 (large cell lung carcinoma, suspension, top dose 0.25 µM)”, the AUC turned out to be 0.659 and the IC50 was 39.4 nM.

For “NCI-H1304 (small cell lung carcinoma, suspension, top dose 0.25 µM)”, the AUC was determined as 0.971 and the IC50 is above 250 nM.

Take “NCI-H1341 (small cell lung carcinoma, suspension, top dose 0.25 µM)”: the AUC was 0.67 and the IC50 was 42.8 nM.

For the cell line “NCI-H1355 (lung adenocarcinoma, adherent, top dose 0.25 µM)”, the AUC turned out to be 0.642.

Take “NCI-H1395 (lung adenocarcinoma, adherent, top dose 0.25 µM)”: the AUC is 0.83 and the IC50 amounted to 234 nM.

As to “NCI-H1417 (small cell lung carcinoma, suspension, top dose 0.25 µM)”, the AUC is 0.789 and the IC50 was determined as 134 nM.

Regarding “NCI-H1435 (lung adenocarcinoma, semi-adherent, top dose 0.25 µM)”, the AUC was determined as 0.938 and the IC50 was above 250 nM.

As for “NCI-H1436 (small cell lung carcinoma, suspension, top dose 0.25 µM)”, the AUC was 0.838 and the IC50 worked out at 203 nM.

Regarding “NCI-H1437 (lung adenocarcinoma, adherent, top dose 0.25 µM)”, the AUC is 0.693 and the IC50 stood at 55.6 nM.

As for “NCI-H1563 (lung adenocarcinoma, adherent, top dose 0.25 µM)”, the AUC is 0.734 and the IC50 is 83.7 nM.

For the cell line “NCI-H1568 (lung adenocarcinoma, adherent, top dose 0.25 µM)”, the AUC came to 0.767 and the IC50 turned out to be 116 nM.

With “NCI-H1623 (lung adenocarcinoma, adherent, top dose 0.25 µM)”, the AUC worked out at 0.662 and the IC50 amounted to 49.1 nM.

Turning to “NCI-H1648 (lung adenocarcinoma, adherent, top dose 2 µM)”, the AUC came to 0.48 and the IC50 turned out to be 110 nM.

On to “NCI-H1651 (lung adenocarcinoma, adherent, top dose 0.25 µM)”, for which the AUC stood at 0.846 and the IC50 came out at 205 nM.

“NCI-H1688 (small cell lung carcinoma, adherent, top dose 0.25 µM)”: the AUC turned out to be 0.854 and the IC50 came out at 230 nM.

On to “NCI-H1693 (lung adenocarcinoma, adherent, top dose 0.25 µM)”, for which the AUC came out at 0.717 and the IC50 is 94.9 nM.

With “NCI-H1694 (small cell lung carcinoma, suspension, top dose 0.25 µM)”, the AUC was 0.826 and the half-maximal inhibitory concentration (IC50) came out at 150 nM.

On to “NCI-H1703 (lung adenocarcinoma, adherent, top dose 0.25 µM)”, for which the AUC amounted to 0.754 and the IC50 stood at 101 nM.

For “NCI-H1755 (lung adenocarcinoma, adherent, top dose 0.25 µM)”, the AUC came out at 0.791 and the IC50 was 133 nM.

For “NCI-H1770 (non-small cell lung carcinoma, suspension, top dose 0.25 µM)”, the AUC was found to be 0.863 and the IC50 was 173 nM.

As to “NCI-H1781 (lung adenocarcinoma, adherent, top dose 0.25 µM)”, the AUC worked out at 0.985 and the IC50 was above 250 nM.

For the cell line “NCI-H1792 (lung adenocarcinoma, adherent, top dose 0.25 µM)”, the AUC worked out at 0.728 and the IC50 turned out to be 64.4 nM.

On to “NCI-H1836 (small cell lung carcinoma, suspension, top dose 0.25 µM)”, for which the AUC turned out to be 0.986 and the IC50 was above 250 nM.

As for “NCI-H1838 (lung adenocarcinoma, adherent, top dose 2 µM)”, the AUC worked out at 0.708 and the IC50 came to 556 nM.

Take “NCI-H1869 (lung squamous cell carcinoma, adherent, top dose 0.25 µM)”: the AUC came out at 0.814 and the half-inhibitory concentration (IC50) is 159 nM.

As to “NCI-H1876 (small cell lung carcinoma, adherent, top dose 0.25 µM)”, the AUC came to 0.556 and the IC50 was 22.2 nM.

“NCI-H1944 (lung adenocarcinoma, adherent, top dose 0.25 µM)”: the AUC worked out at 0.759 and the IC50 worked out at 92.6 nM.

In the case of “NCI-H1975 (lung adenocarcinoma, adherent, top dose 0.25 µM)”, the AUC amounted to 0.611 and the IC50 was 33 nM.

Turning to “NCI-H1993 (lung adenocarcinoma, adherent, top dose 0.25 µM)”, the AUC stood at 0.976 and the concentration for half-maximal inhibition (IC50) was above 250 nM.

On to “NCI-H2009 (lung adenocarcinoma, adherent, top dose 0.25 µM)”, for which the AUC came out at 0.744 and the IC50 came to 82 nM.

“NCI-H2023 (lung adenocarcinoma, adherent, top dose 2 µM)”: the AUC worked out at 0.267 and the IC50 was determined as 22.7 nM.

Take “NCI-H2030 (lung adenocarcinoma, adherent, top dose 2 µM)”: the AUC was found to be 0.28 and the IC50 was determined as 26.9 nM.

Take “NCI-H2052 (mesothelioma, adherent, top dose 0.25 µM)”: the AUC turned out to be 0.792 and the concentration for half-maximal inhibition (IC50) came out at 151 nM.
